# This is one part of the list.
# T1: UNK ZnF1-3 (human, UniProt Q9C0B0 31-174)
# T1 sequence: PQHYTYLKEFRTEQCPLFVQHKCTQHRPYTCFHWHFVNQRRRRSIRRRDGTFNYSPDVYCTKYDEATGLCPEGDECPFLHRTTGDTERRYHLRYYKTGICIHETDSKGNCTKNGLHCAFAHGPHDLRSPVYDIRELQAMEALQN
# B1: chr3:124025330:124025331:+_ENSMUSG00000044528_ENSMUST00000058994|mus_hu|FALSE|FALSE (ssRNA)
# RNA: GGGAGUUCUACAGUCCGACGAUCUUUUUUUCCCAUUCAUAAUAAUCCUCCUCCCCUCAAAUGUCUUUAAAAAAUACAUGAAACAGUUCAAUAACAAAAACCGAAGAGCACGAACUAUUUUCAAAAACAGAAAAAUCUCUAGUGCAACAGAGGAUUGAGCAUCA
# B2: chr2:39278355:39278356:-_ENSG00000115904_ENST00000402219|hu_mus|FALSE|FALSE (ssRNA)
# RNA: GGGAGUUCUACAGUCCGACGAUCACAGCUUCCUACUAAUGGGUGGGGACUGCCUUCAUCUGUCAUUUCUACAGUAUCUUCUAUAUGGCCCAGUAACUUUACACUAAGUUCAUGUAUAUCUACUAUACGACUGAAUAUGUUUUCCAACAGAGGAUUGAGCAUCA
# B3: 31828029_31828323_880_CDS_ENSG00000204386_ENST00000375631|human|control|control (ssRNA)
# RNA: GGGAGUUCUACAGUCCGACGAUCGAGCUCAUAGGGCUGGCAUUCAUCAGGAUUGAAAUCAUUUUCCUGCUUGGGCUGACCGUAGGGGAUGCCGCUGACCCCACUUCCGUAGCGCCAGGAGGCACCAUGAUCAUCGCUGAGGAGCAACAGAGGAUUGAGCAUCA
# B4: 32059766_32061897_1963_3pUTR_ENSMUSG00000039262_ENSMUST00000036691|mouse|control|control (ssRNA)
# RNA: GGGAGUUCUACAGUCCGACGAUCAGAACAUGGUGGGUGCUUCUUGGACAGGGAACUCUGGGGAGCCUUUGCGGACAACAGGCCCAUUCUCUGGCGGGGAGACCUUCUCAAUGCCCGGGGAUCGGGGGACUUCCUUUUCCACUGCAACAGAGGAUUGAGCAUCA
# B5: chr7:28111804:28111805:-_ENSMUSG00000040488_ENSMUST00000121175|mus_hu|FALSE|FALSE (ssRNA)
# RNA: GGGAGUUCUACAGUCCGACGAUCAGAGUCGCAAGCGCAGGUGUAGCCGCUGGGCCGGGAAAUGCAGCGUCCUGGGCCGCAGACCUGGGGGUUGCGCUGACACAUGCCGGAGGAGGGACCUGAUUCAGGAAUCUCAGGACCAGUCAACAGAGGAUUGAGCAUCA
# B6: chr3:51261291:51261292:+_ENSMUSG00000063273_ENSMUST00000029303|mus_mus|FALSE|FALSE (ssRNA)
# RNA: GGGAGUUCUACAGUCCGACGAUCUUCAGCCUCUUUAAUCAGGUUGGCUUUUAACAUGUAUUUUGCACACUUGGAAUUAAUAAAUCUGUCUGCUGUGUCCAGGGCCUGGGCUUCAUCCAUCCACCUGGCAGCUUCUUUAAUAUUCAACAGAGGAUUGAGCAUCA
# B7: chr1:38108737:38108738:+_ENSMUSG00000026083_ENSMUST00000027252|mus_mus|FALSE|FALSE (ssRNA)
# RNA: GGGAGUUCUACAGUCCGACGAUCUUUGAAGGAAGGGCAAACUUUAAAACAGCAGCCAAGUCUUAAAGGAAGGGUGGGUGAGUGCAGGCACGCUGGACUGUGGGGCGGGGAACUGACCACUGUCAAACCAGUGUAAGUUGCUUGCAACAGAGGAUUGAGCAUCA
# B8: 32351617_32351737_1693_CDS_ENSMUSG00000024002_ENSMUST00000121285|mouse|control|control (ssRNA)
# RNA: GGGAGUUCUACAGUCCGACGAUCAGAGUCGUCAGUGGAACUGUCGCUGUCGGAAGAACUGUCGCUGCUGCUGUCACUAGAUGAGGGUGGGGCUACCACCUUUGUAGGGGGUGGCACUGCAGGAGAGGACACUGUAACAACUGGCAACAGAGGAUUGAGCAUCA
# B9: chr2:29769918:29769919:+_ENSMUSG00000026790_ENSMUST00000113756|mus_hu|FALSE|FALSE (ssRNA)
# RNA: GGGAGUUCUACAGUCCGACGAUCCUGCAAAUGCCCACGCAUGGACUCCAUGGAUUUAGAAAGCUCAGAGGCUGUCUUUGCUUGAGCCUUCUCACAUUGUAUUUCCUGAAGGAGCUCUUCCACCUCCUUGUCCUUGUCUUGCAGCAACAGAGGAUUGAGCAUCA
# B10: 29192280_29192400_3777_3pUTR_ENSG00000120875_ENST00000240100|human|control|control (ssRNA)
# RNA: GGGAGUUCUACAGUCCGACGAUCUGUUGUCUCUAAAUGGUUCCAUUGUCUGGGAACUGAAACCCUCCAUGCUUCACCCUGAACUGUUAUUUCUAGAGGAAGCAGGGAGCCUCUGGCUCUUCUAAAAAUUGCCAGUGGGAGCUCCAACAGAGGAUUGAGCAUCA
# B11: chr16:94690093:94690094:+_ENSMUSG00000040785_ENSMUST00000117648|mus_hu|mus_mus_mus_hu_True|58_78 (ssRNA)
# RNA: GGGAGUUCUACAGUCCGACGAUCGGGCUGGGAUGACGGACACACAGCCUCGAUUCCGGUAAAAAAAAGUCUUAGUCAAUACUAAUUAAAAAGUGUUAAUGAUUUUUGAAAAUCAGAUUACAUCUAUAAAAGAUGAAAAGCAAACAACAGAGGAUUGAGCAUCA
# B12: chr4:81936313:81936314:-_ENSMUSG00000008575_ENSMUST00000064770|mus_hu|motif|central (ssRNA)
# RNA: GGGAGUUCUACAGUCCGACGAUCCCCACAAAAAGUACCCAAAGAACGUUAUCCUCCAACCGGGCACAAUAAAACCUUCACGGACAUUCUGGCCCAGUCUGGGGUUGAUCCCAGAGGCCUGAACUCUAGAAAUUAAGUAACUGUCAACAGAGGAUUGAGCAUCA
# B13: chr7:140404665:140404666:+_ENSG00000090266_ENST00000247866|hu_hu|hu_hu_hu_mus_False|58_108 (ssRNA)
# RNA: GGGAGUUCUACAGUCCGACGAUCUGCGUACAGAGUGCCAGAGAGUUUACAGUGUCAGUCCUCGUCAUCAGGAGGGAUACCUAAUUCUUCAUCUGUCCACUGUGAAGGAUCUGGAUAUGAAAAGUGACCCAGCACAGCAUCCGACAACAGAGGAUUGAGCAUCA
# B14: 54187784_54189223_636_3pUTR_ENSMUSG00000021474_ENSMUST00000021930|mouse|control|control (ssRNA)
# RNA: GGGAGUUCUACAGUCCGACGAUCCCUUUGUCUCAUCAGUGGGAUGUUAAUGCAGUUAGCAGCAGCUACAGCAGCGAAGGGAACAAAACGUCCUAUCAGUGGGGAGACACGCUUGGUUAAGGCAUUGAGUCCUAGGGCCGUUGCCAACAGAGGAUUGAGCAUCA
# B15: chr12:21796937:21796938:-_ENSG00000111716_ENST00000350669|hu_mus|FALSE|FALSE (ssRNA)
# RNA: GGGAGUUCUACAGUCCGACGAUCCACGAUGAUGGUGCAGUCAGGGCUGUACUUGACGAUCUGAGGAAUGAUGAACUUGAACACGUUGACAUUUCUCUGCACCAGGUUGAGCCGACUCUCCCCCUCCUGCUGGCGGACUCCUGCCAACAGAGGAUUGAGCAUCA
# B16: 47614209_47621638_942_CDS_ENSG00000102893_ENST00000566044|human|control|control (ssRNA)
# RNA: GGGAGUUCUACAGUCCGACGAUCAGUUUGCCUGUUGCGAUUGUGAGCAUCGAGAUCCACAAAUAUAACUGACCACGAACAGCCCUGGUUGCCAAAAAGGUUGAAUCCAUUAAUUGCUUCUAGAGCUGCUUUUGCUAAACCAACCAACAGAGGAUUGAGCAUCA
# B17: 49672327_49672447_664_CDS_ENSG00000102935_ENST00000562871|human|control|control (ssRNA)
# RNA: GGGAGUUCUACAGUCCGACGAUCUUUGUGGGCCUGCAUGUGGCUCUGCAGCGAGCUGGUGGAGGAGAAGCCGCGCUUGCACACAGUGCACUUGAAGGGCUUGCUGGAGCUGUGGGUCUUCAGGUGGAUCUUGAGGUGGUCGCUCAACAGAGGAUUGAGCAUCA
# B18: chr4:140265382:140265383:+_ENSG00000164134_ENST00000296543|hu_mus|motif|central (ssRNA)
# RNA: GGGAGUUCUACAGUCCGACGAUCUUCUCUAUAAAGACCUGCUUCCCGAAGAACUUGAUUCUGAUAUAAGAGGAGUUCACGGUAUUCAUAAUCCACUUUAUCAGGAGAUGUCUGCUGUGUUUUCCUAAACUCUUCUAAAAUUUUCAACAGAGGAUUGAGCAUCA
# B19: chr17:8508246:8508247:-_ENSG00000133026_ENST00000269243|hu_mus|FALSE|FALSE (ssRNA)
# RNA: GGGAGUUCUACAGUCCGACGAUCAUACAUUUCAAUAAUAUUCUCAGAGUAAAUUGGAAGGUUCUUGUAAGGAUUUAUCACCACACAGAAGAGUCCAGAGUAAGUAUAGAUAAGUCCUGAAUAGUAGCGGUCCUUCAAAUUAUGCAACAGAGGAUUGAGCAUCA
# B20: 105924449_105924569_676_CDS_ENSG00000135966_ENST00000393359|human|control|control (ssRNA)
# RNA: GGGAGUUCUACAGUCCGACGAUCGUUGACCAGGCUGAUGGAGUUGUCACACAGCACCAGCAGCCUGUUGAGUGCUGAGGCCGCACGCAGCUCGUUCACGGGCUUCUUGAAGCCCAAGUGUCUCUGCAGCUGUUUGGUGGCAGUCAACAGAGGAUUGAGCAUCA
# B21: chr4:82449818:82449819:-_ENSMUSG00000028403_ENSMUST00000030110|mus_hu|FALSE|FALSE (ssRNA)
# RNA: GGGAGUUCUACAGUCCGACGAUCUACAUUUCUAUGUUUUGUAAUAAAUUGGUAAUUUCAAAGUAACAGCUUUUCCAAUUCUAAGGAAUUACUCUGCCAAAAUAAGGUUUAAAAUAAAAUACAUAAAAUGGCUUAGUUUAUCCUCAACAGAGGAUUGAGCAUCA
# B22: chr1:87369078:87369079:-_ENSG00000183291_ENST00000370554|hu_hu|motif|central (ssRNA)
# RNA: GGGAGUUCUACAGUCCGACGAUCCAGGUUGAACUGUCCGAGAAGAUCACAAGAGCUGCAAAGCAAGUUGCUAGAAAAGCCGGACUCUCUGCAUGCCUCCGAUGAAAACUCUGCCCCAAAAGCAGACACCGCUUGAAGCACAGUCAACAGAGGAUUGAGCAUCA
# Target: T1, UNK ZnF1-3
# Test: nsRBNS (natural sequence RNA bind-n-seq); RBNS binding buffer (assumed for nsRBNS): 25 mM Tris pH 7.5, 150 mM KCl, 3 mM MgCl2, 0.01% Triton X-100, 500 ug/ml BSA, 20 U/ml SUPERase-In, 4 C; UNK is unkempt and MSI1 is Musashi-1; names of the RNAs are library labels; protein concentration not given here; high values mean tight binding
row,Binder,binding signal
1,B1,2.1 enrichment R
2,B2,0.674 enrichment R
3,B3,1.06 enrichment R
4,B4,1.33 enrichment R
5,B5,0.903 enrichment R
6,B6,0.86 enrichment R
7,B7,1.65 enrichment R
8,B8,1.4 enrichment R
9,B9,0.454 enrichment R
10,B10,0.773 enrichment R
11,B11,2.07 enrichment R
12,B12,1.13 enrichment R
13,B13,0.929 enrichment R
14,B14,1.3 enrichment R
15,B15,0.9 enrichment R
16,B16,1.22 enrichment R
17,B17,0.822 enrichment R
18,B18,1.3 enrichment R
19,B19,1.79 enrichment R
20,B20,0.399 enrichment R
21,B21,0.946 enrichment R
22,B22,0.86 enrichment R
